42 molecules from patent publication US20250066451A1 (SWEDISH ORPHAN BIOVITRUM AB PUBL, published 2025) can be followed below.

T1: Human IL-1R-I-Fc (Creative BioMart cat. no. IL1RI-771H) (human, UniProt P14778 18-332, limits assumed)
T1 construct: bought protein; also called hIL-1R-I-Fc; hIL-1RI-Fc
T1 sequence (looked up): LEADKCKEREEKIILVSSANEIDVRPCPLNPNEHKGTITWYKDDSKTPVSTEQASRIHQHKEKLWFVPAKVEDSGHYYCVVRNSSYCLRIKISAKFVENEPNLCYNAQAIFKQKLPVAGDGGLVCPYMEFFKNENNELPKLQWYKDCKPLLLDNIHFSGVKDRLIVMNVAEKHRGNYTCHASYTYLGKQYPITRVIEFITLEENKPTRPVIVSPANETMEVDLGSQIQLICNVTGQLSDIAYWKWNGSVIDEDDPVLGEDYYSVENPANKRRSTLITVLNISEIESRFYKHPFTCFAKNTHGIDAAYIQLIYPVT

B1: Z15949-ABD (designed binder)
chain: AQHDEALEVDAKYAKETETAQMEIFALPNLTRKQYTAFIRKLLDDPSQSSELLSEAKKLNDSQAPKVDYVLAEAKVLANRELDKYGVSDYYKNLINNAKTVEGVKALIDEILAALPYVPG
B2: Z16000-ABD (designed binder)
chain: B1 chain with T17A, E18Y, T19R
B3: Z15961-ABD (designed binder)
chain: B1 chain with T17V, L43F
B4: Z16089-ABD (designed binder)
chain: B1 chain with T17I, T19S, Q21Y, M22Y
B5: Z16178-ABD (designed binder)
chain: B1 chain with T17V, T19E, A26F, R40I, L43F
B6: Z15996-ABD (designed binder)
chain: B1 chain with T17V, T19S, A26N, L43F
B7: Z16156-ABD (designed binder)
chain: B1 chain with T17I, T19R, A26S
B8: Z16072-ABD (designed binder)
chain: B1 chain with T17V, T19I, A26E
B9: Z16135-ABD (designed binder)
chain: B1 chain with T17V, T19L, M22H, A26Q, L43F
B10: Z16141-ABD (designed binder)
chain: B1 chain with T17V, E18V, T19Q, Q21Y, M22D, F25Y, A26G
B11: Z16161-ABD (designed binder)
chain: B1 chain with T17V, T19Y, F25Y, A26S, K33R
B12: Z16121-ABD (designed binder)
chain: B1 chain with T17V, T19D, Q21Y, M22F, F25Y, A26N
B13: Z16102-ABD (designed binder)
chain: B1 chain with T17V, F25Y, A26Q, L43F
B14: Z16004-ABD (designed binder)
chain: B1 chain with T17V, T19V, A26S
B15: Z15960-ABD (designed binder)
chain: B1 chain with T19A
B16: Z16117-ABD (designed binder)
chain: B1 chain with T17I, T19K, M22F, L43F
B17: Z16092-ABD (designed binder)
chain: B1 chain with T17I, T19Q, F25Y, A26R
B18: Z16155-ABD (designed binder)
chain: B1 chain with E18W, T19Y, A26S
B19: Z16164-ABD (designed binder)
chain: B1 chain with T17V, T19E, Q21Y, F25Y, A26N
B20: Z16093-ABD (designed binder)
chain: B1 chain with T19E, L43F
B21: Z15978-ABD (designed binder)
chain: B1 chain with T17V, T19A, A26N
B22: Z16165-ABD (designed binder)
chain: B1 chain with T17I, T19V, F25Y, A26S, L43F
B23: Z15997-ABD (designed binder)
chain: B1 chain with T17I, T19E, A26Q
B24: Z16127-ABD (designed binder)
chain: B1 chain with T17I, T19I, A26G
B25: Z16173-ABD (designed binder)
chain: B1 chain with T17I, T19A, Q21Y, M22A, F25Y, A26Q
B26: Z16163-ABD (designed binder)
chain: B1 chain with T17V, T19R, A26E, K33R
B27: Z16008-ABD (designed binder)
chain: B1 chain with T17V, T19V, A26N, K33R
B28: Z15975-ABD (designed binder)
chain: B1 chain with T17V, A26V
B29: Z16122-ABD (designed binder)
chain: B1 chain with T17A, T19D, Q21Y, F25Y, A26S, K33R
B30: Z16070-ABD (designed binder)
chain: B1 chain with T17I, T19E, F25Y, A26R, L43F
B31: Z16007-ABD (designed binder)
chain: B1 chain with T17V, T19I, A26S, L43F
B32: Z16116-ABD (designed binder)
chain: B1 chain with T17V, T19A, A26G
B33: Z16168-ABD (designed binder)
chain: B1 chain with T17A, E18V, T19S, Q21Y, M22W, K33R
B34: Z16084-ABD (designed binder)
chain: B1 chain with T17I, T19I, A26E, L43F
B35: Z15987-ABD (designed binder)
chain: B1 chain with T17V, T19E, F25Y, A26Y
B36: Z16169-ABD (designed binder)
chain: B1 chain with T19E, A26Y, K33R
B37: Z16003-ABD (designed binder)
chain: B1 chain with T17V, E18Y, T19I, F25Y, A26G, L43F
B38: Z16097-ABD (designed binder)
chain: B1 chain with T19R, A26S
B39: Z16143-ABD (designed binder)
chain: B1 chain with T17I, T19A, A26R
B40: Z15999-ABD (designed binder)
chain: B1 chain with T17V, T19I, Q21Y, A26H
B41: Z16106-ABD (designed binder)
chain: B1 chain with T17V, T19D, A26K, L43F
B42: Z16162-ABD (designed binder)
chain: B1 chain with T17A, T19S, Q21Y, M22W, F25Y, A26H

Numbering of substitutions follows the chain as printed.

For this experiment, the target named is T1, Human IL-1R-I-Fc (Creative BioMart cat. …). Put plainly: ELISA, hIL-1R-I-Fc titration on Z-ABD. In general terms: An ELISA detects its analyte on a solid surface through an enzyme-linked reagent.
A word on the EC50: it is the midpoint of the concentration-response curve. Low readings indicate higher potency in that assay, high ones lower potency in that assay. On to B1, for which it took 0.25 nM to reach a half-maximal effect (EC50).

Turning to B2, a half-maximal response (EC50) required 0.24 nM.

B3 yielded a concentration for a half-maximal effect (EC50) of 0.21 nM.

In the case of B4, the EC50 is 0.24 nM. This EC50 and that of the molecule before are within 1.5-fold of each other.

As for B5, the EC50 was determined as 0.24 nM. This counts as sub-nanomolar.

Consider B6, for which the concentration giving a half-maximal response (EC50) was determined as 0.25 nM.

In turn, B7 gave an EC50 of 0.24 nM. The EC50 values of the last two molecules are within 1.5-fold of each other.

In turn, B8 showed an EC50 of 0.22 nM. The EC50 values of the last two molecules are within 1.5-fold of each other.

In the case of B9, the EC50 is 0.25 nM.

B10 displayed a concentration giving a half-maximal response (EC50) of 0.28 nM. This EC50 and that of the molecule before are within 1.5-fold of each other.

As to B11, the EC50 stood at 0.25 nM.

B12: the concentration for a half-maximal effect (EC50) is 0.23 nM.

Turning to B13, the 50% effective concentration (EC50) amounted to 0.28 nM. The EC50 values of the last two molecules are within 1.5-fold of each other.

For the molecule B14, the EC50 turned out to be 0.25 nM.

In turn, B15 displayed an EC50 of 0.23 nM.

As for B16, a half-maximal response (EC50) required 0.21 nM. The EC50 values of the last two molecules are within 1.5-fold of each other.

With B17, the midpoint of the response, the EC50, lay at 0.24 nM.

B18 showed an EC50 of 0.29 nM.

B19 showed an EC50 of 0.68 nM. Compared with the last molecule, the EC50 is about 2.3-fold higher.

B20 displayed an EC50 of 0.21 nM.

Turning to B21, it took 0.48 nM to reach a half-maximal effect (EC50). Compared with the last molecule, the EC50 is about 2.3-fold higher.

B22 had an EC50 of 0.22 nM.

The molecule B23 returned an EC50 of 0.25 nM.

Turning to B24, a half-maximal response (EC50) required 0.21 nM.

B25 registered a concentration giving a half-maximal response (EC50) of 0.36 nM.

As to B26, a half-maximal response (EC50) required 0.17 nM.

Regarding B27, a half-maximal effect (EC50) was put at 0.23 nM.

The molecule B28 registered an EC50 of 0.24 nM.

As for B29, the concentration giving a half-maximal response (EC50) was determined as 0.29 nM.

In turn, B30 gave an EC50 of 0.23 nM.

Molecule B31 showed a concentration for a half-maximal effect (EC50) of 0.22 nM. This EC50 and that of the molecule before are within 1.5-fold of each other.

With B32, a half-maximal effect (EC50) was put at 0.21 nM.

The molecule B33 displayed an EC50 of 0.28 nM.

For the molecule B34, the EC50 is 0.22 nM.

As for B35, the EC50 worked out at 0.23 nM.

Molecule B36 gave a concentration for a half-maximal effect (EC50) of 0.18 nM.

Take B37: the EC50 was 0.28 nM.

B38 gave a half-maximal effective concentration (EC50) of 0.2 nM.

The molecule B39 came in with an EC50 of 0.21 nM.

Consider B40, for which the EC50 turned out to be 0.24 nM. The EC50 values of the last two molecules are within 1.5-fold of each other.

As to B41, the EC50 stood at 0.23 nM. The EC50 values of the last two molecules are within 1.5-fold of each other.

With B42, the midpoint of the response, the EC50, lay at 0.27 nM.
